According to PubChem BioAssay AID485344 (National Center for Advancing Translational Sciences (NCATS), 2010):
The whole screen tested about 340,000 compounds, of which about 6,900 (2%) were called active. Cut-off read from the data, not from the text of the source: active = inhibition above about 30%; inactive = below that, where a call was filed. The entries are a selection whose mix differs from that of the whole data set. Where no call is shown, the source filed none.

Each compound was assayed against D(2) dopamine receptor (Homo sapiens) (UniProt P14416) (assay: HTS Assay for Allosteric Antagonists of the Human D2 Dopamine Receptor: Primary Screen for Antagonists). Conditions: HEK293 TREx D2 cells, calcium flux, dopamine EC80; at 10 µM; stronger effect = higher value.
Method in brief: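 Compounds are added to dye-loaded, induced HEK293 T-REx cells coupled to calcium release via D2; after a 3 min kinetic read an EC80 dopamine stimulus is given and fluorescence is recorded for 3 more min.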
Note: 0% is about no effect.

Chain of UniProt P14416 (P14416 whole entry, looked up): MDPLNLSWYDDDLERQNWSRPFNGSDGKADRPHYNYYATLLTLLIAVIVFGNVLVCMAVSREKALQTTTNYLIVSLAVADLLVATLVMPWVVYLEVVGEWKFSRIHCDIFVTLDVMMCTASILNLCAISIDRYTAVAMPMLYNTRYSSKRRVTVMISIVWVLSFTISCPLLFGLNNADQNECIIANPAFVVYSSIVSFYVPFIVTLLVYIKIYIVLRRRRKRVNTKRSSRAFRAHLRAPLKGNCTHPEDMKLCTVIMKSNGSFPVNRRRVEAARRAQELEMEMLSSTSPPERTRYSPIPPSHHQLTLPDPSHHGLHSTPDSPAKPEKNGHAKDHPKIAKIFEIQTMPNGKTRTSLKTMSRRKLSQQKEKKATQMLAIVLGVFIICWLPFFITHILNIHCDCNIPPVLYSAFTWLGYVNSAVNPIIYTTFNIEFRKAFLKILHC

Row | Compound | inhibition
1 | COc1ccc(CNC(=O)CSc2ncc3c(n2)-c2cc(Cl)ccc2N(Cc2ccccc2)S3(=O)=O)cc1 | -7.21%
2 | Cc1ccc(Cl)cc1N1CCN(C(=O)Cn2c(-c3cccs3)cc3cc(F)ccc32)CC1 | 19.9%
3 | CCOC(=O)Cn1c(=O)cc(C(F)(F)C(F)(F)F)c2c(C)nn(CC)c21 | -0.384%
4 | O=C(Cc1ccccc1)NC1CCN(Cc2ccccc2)CC1 | active: 36.4%
5 | COc1cccc(-n2c(-c3ccccc3F)nc3c(cnn3-c3ccc(C)cc3)c2=O)c1 | 12.4%
6 | CCOC(=O)C(Cc1ccccc1)NC(=O)CCc1c(C)nc2nc(C)nn2c1C (configuration not stated) | -1.05%
7 | O=C(NC1CCCC1)c1ccc2c(=O)n(Cc3ccccc3)c(SCc3cccc([N+](=O)[O-])c3)nc2c1 | -6.77%
8 | Cc1ccccc1NC(=O)CSc1nc(-c2ccccc2)cn1-c1ccccc1F | 14.7%
9 | Cc1ccccc1OCc1nc2c3cnn(-c4ccccc4F)c3ncn2n1 | 7.95%
10 | Cc1cc(C)c2nc(-c3ccccn3)cc(C(=O)NCc3cc(C)n(C)n3)c2c1 | active: 35.4%
11 | COc1ccc(C)cc1NS(=O)(=O)c1ccc2c3c(cccc13)C(=O)N2 | 2.33%
12 | COc1ccccc1Cn1ccn(Cc2ccc(C)cc2)c(=O)c1=O | -0.693%
13 | CCCc1cc(N2CCN(c3cccc(C)c3C)CC2)n2cnnc2n1 | -7.08%
14 | Cc1cc(C)c(NC(=O)CSc2nccn2-c2cccc(Cl)c2)c(C)c1 | -2.05%
15 | COc1ccc(CNC(=O)CCC2N=C3c4ccccc4N=C(SCc4ccccc4F)N3C2=O)cc1 (configuration not stated) | -12.9%
16 | Cc1cc(OCCn2c(CCNC(=O)C3CCCCC3)nc3ccccc32)ccc1Cl | 8.16%
17 | Cc1ccc(-c2nc(SCC(=O)NCC3CCCO3)c3c(=O)n(C)c(=O)n(C)c3n2)cc1 (configuration not stated) | 2.36%
18 | Oc1c(C(c2ccccc2F)N2CCN(c3ccccc3F)CC2)sc2nc(-c3ccco3)nn12 (configuration not stated) | -13.2%
19 | Cc1ccccc1N1CCN(S(=O)(=O)c2ccccc2)CC1 | 7.5%
20 | COc1cc2nc(Nc3cccc(C)c3)nc(N)c2cc1OC | 0.434%
21 | CCC(C)Sc1nc2c(c(=O)[nH]c(=O)n2C)n1CC(O)COc1ccccc1C (configuration not stated) | active: 30.1%
22 | Cc1ccc(C(=O)NCC(c2ccco2)S(=O)(=O)c2cccs2)cc1C (configuration not stated) | 19.2%
23 | CCCCN(Cc1cc2ccccc2[nH]c1=O)C(=O)c1cccc(Cl)c1 | -7.09%
24 | COC(=O)c1sc(-c2ccccc2)cc1NC(=O)Nc1ccc(Cl)cc1 | 20.4%
25 | CC1=C(C(=O)NCc2ccccc2C)C2(CCCCCC2)OC1=O | -25.5%

Row | Compound | inhibition
26 | O=C(Oc1ccc(F)cc1)c1nc(SCc2ccc(F)cc2)ncc1Cl | -8.72%
27 | COc1ccc(NC(=O)CCS(=O)(=O)c2ccc3c(c2)oc(=O)n3C)cc1OC | -1.34%
28 | COc1ccc(-c2cc3c(=O)n(CC(=O)Nc4cc(F)ccc4F)ccn3n2)cc1OC | 13.3%
29 | CCc1ccc(NC(=O)[C@H](CSCc2ccccc2)N2Cc3ccccc3C2=O)cc1 | 1.43%
30 | Cc1nn(-c2ccccc2)c2sc(C(=O)Nc3ccc(Br)cc3)cc12 | 13.7%
31 | O=C1COc2ccc(-c3cc(-c4ccccc4)c4c(n3)-c3ccccc3OC4)cc2N1 | 0.38%
32 | O=S(=O)(c1ccc(Cl)cc1)N(CCCN1CCOCC1)Cc1cccs1 | active: 42.8%
33 | CN(C)c1ccc(-c2nc(-c3cccs3)c(-c3cccs3)[nH]2)cc1 | 18.9%
34 | CN1CCN(CCCN2c3ccccc3Sc3ccc(S(=O)(=O)N(C)C)cc32)CC1 | active: 81.6%
35 | CCCn1c(SCC(O)c2ccccc2)nc2ccccc21 (configuration not stated) | 3.27%
36 | COc1cccc(CNC(=O)CCCn2ncn3c(cc4occc43)c2=O)c1 | 7.37%
37 | Cc1cccc(C(c2sc3nc(-c4ccco4)nn3c2O)N2CCN(c3ccccc3F)CC2)c1 (configuration not stated) | -5.35%
38 | CCOC(=O)C1CCCN(S(=O)(=O)c2cc(Br)cc3c2N(C(C)=O)CC3)C1 (configuration not stated) | -21%
39 | CCOc1ccc(NC(=O)CCN2CCN(c3ccccc3F)CC2)cc1 | active: 76.9%
40 | CC1CN(CCCCN2C(=O)c3ccccc3C2=O)CC(C)O1 (configuration not stated) | active: 39.9%
41 | COC(=O)c1ccc(NS(=O)(=O)c2ccc3[nH]c4c(c3c2)CCCC4)cc1 | -20.3%
42 | CCC(=O)N1CCc2cc(S(=O)(=O)NCCC(=O)NCc3ccc(C)cc3)ccc21 | -7.14%
43 | COc1ccccc1C(=O)OCc1cc(=O)n2nc(-c3cccs3)sc2n1 | -0.748%
44 | CCOc1ccc(-c2cc(NC(=O)Nc3ccc(Cl)cc3)c(C(=O)OC)s2)cc1 | -1.81%
45 | CCCSc1ncc(Cl)c(C(=O)N(Cc2cccc(Cl)c2)C2CCS(=O)(=O)C2)n1 (configuration not stated) | -11.7%
46 | CCOC(=O)c1c(NC(=O)CCCOc2ccc(C(C)(C)C)cc2)sc2c1CCCC2 | 8.78%
47 | COc1ccc(OC)c(NC(=O)c2cnc(N3CCCCC3)c3ccccc23)c1 | -7.23%
48 | O=C(CN1CCCN(Cc2ccc(F)cc2)S1(=O)=O)Nc1ccc2c(c1)OCCO2 | 9.43%
49 | CCCN(CCC)CCCNC(=O)Cn1ncc2c3ccccc3n(Cc3ccccc3F)c2c1=O | 1.9%
50 | CCc1nn(CCCC(=O)NCc2ccc(C)cc2)c(=O)c2cc3occc3n12 | 17.2%

Row | Compound | inhibition
51 | CC(=O)c1nn(-c2ccc(OC(F)(F)F)cc2)nc1Nc1ccccc1 | 17.1%
52 | CCNC(=S)N1CCN(CCN2C(=O)c3cccc4cccc(c34)C2=O)CC1 | active: 43.5%
53 | CCOC(=O)N1CCC(NC(=O)c2cnn(-c3ccc(C)cc3C)c2C2CCN(C(=O)OC(C)(C)C)CC2)CC1 | 7.11%
54 | CC(=O)Nc1cccc(Nc2nc3ccccc3n3c(C)nnc23)c1 | -15.2%
55 | Cc1ccc(NC(=O)C(Cc2ccccc2)NS(=O)(=O)c2ccc3c(c2)CCC(=O)N3)cc1 (configuration not stated) | 20.6%
56 | Cc1cc(C)cc(NC(=O)CSc2nc3ncccc3[nH]2)c1 | 8%
57 | Cc1ccc(NC(=O)C(=O)NCC(c2ccc3c(c2)OCO3)N2CCN(C)CC2)c(C)c1 (configuration not stated) | 12.2%
58 | COc1ccc(OC)c2sc(NC(=O)C3CC3)nc12 | active: 64.9%
59 | CC(=O)c1cccc(NC(=O)N[C@@H](CC(C)C)C(=O)O)c1 | active: 33.4%
60 | CN(C)S(=O)(=O)c1cccc(CNCC2COc3ccccc3O2)c1 (configuration not stated) | active: 106%
61 | CS(=O)(=O)c1cccc(-c2nnc(NC(=O)c3ccc4c(c3)OCCO4)o2)c1 | -2.35%
62 | CCc1ccc(NC(=O)CC2C(=O)N(c3ccc(C)cc3)C(=O)N2C2CCCC2)cc1 (configuration not stated) | 7.58%
63 | CC(C)(C)c1ccc(Oc2nc3ccccn3c(=O)c2/C=C(\C#N)c2nc3ccccc3s2)cc1 | -3.54%
64 | COc1ccc2c(c1)CCc1sc(NC(=O)c3ccc(Br)cc3)nc1-2 | -6.96%
65 | COc1ccc(N2CCN(S(=O)(=O)CCNC(=O)c3cc(=O)c4ccccc4o3)CC2)cc1 | -19.7%
66 | CN(C)c1oc(-c2ccc(COc3ccccc3)o2)nc1C#N | -11.4%
67 | CC(C)CN(CCNC(=O)c1cn(C)c2ccc(S(=O)(=O)N3CCCCCC3)cc2c1=O)CC(C)C | -3.75%
68 | COc1cc(NC(=O)Cn2ccn(-c3cc(C)cc(C)c3)c(=O)c2=O)cc(OC)c1 | 14.8%
69 | Cc1cc(C)cc(NC(=O)CSc2nc(=O)[nH]c3c2CCC3)c1 | -12.1%
70 | O=S(=O)(c1cccc(Cl)c1)c1nnn2c1nc(NC1CCCC1)c1sccc12 | -4.53%
71 | COC(=O)c1ccc(NC(=O)C2CCN(S(=O)(=O)c3ccc4c(c3)CCCN4C(C)=O)CC2)cc1 | 4.19%
72 | COc1cc(NC(=O)CSc2nc3nc(C)c(Cc4ccccc4)c(C)n3n2)cc(OC)c1OC | -4.87%
73 | CCc1nnc2n1N(C(C)=O)C(c1ccc(C(C)(C)C)cc1)=C(C(C)=O)S2 | -26.2%
74 | Cc1nc(N2CCCC2)ncc1C(=O)NCc1ccccc1Cl | -9.98%
75 | CCc1ccc(CNC(=O)c2cc3c(s2)-c2ccccc2OC3)cc1 | 28.2%

Row | Compound | inhibition
76 | CCOC(=O)c1cc2c(=O)n3ccccc3nc2n(CC2CCCO2)c1=NC(=O)c1cc(C)cc(C)c1 (configuration not stated) | 22.2%
77 | Cc1[nH]c2ccccc2c1C1(O)C(=O)N(Cc2ccc(Cl)cc2)c2ccccc21 (configuration not stated) | 3.02%
78 | CCc1cccc(C)c1Nc1c(-c2cccc(O)c2)nc2sccn12 | 3.28%
79 | COc1ccc(CC(=O)Nc2sc3c(c2C(=O)Nc2ccc(C)cc2)CCCCC3)cc1 | -1.16%
80 | Cc1[nH]c2c(C)cccc2c1CCNC(=O)c1cc2ccccc2oc1=O | 1.85%
81 | Cc1ccc(N(CC(=O)Nc2ccc(OC(F)(F)F)cc2)S(=O)(=O)c2c(C)noc2C)cc1 | -2.03%
82 | COc1cccc(N2CCN(C(=O)c3nc(-c4ccc(Cl)cc4)n4c3CCCCC4)CC2)c1 | 3.33%
83 | Cc1ccc(O)c(NC(=O)c2nc3nc(C)cc(C(F)F)n3n2)c1 | 1.29%
84 | O=c1oc2ccc3ccccc3c2cc1-c1nnc(Nc2cc(C(F)(F)F)ccc2Cl)s1 | 6.12%
85 | CS(=O)(=O)Oc1ccc2c(c1)O/C(=C\C=C\c1ccccc1)C2=O | active: 37.5%
86 | Cc1ccc(NC(=O)c2ccc(CN3CC(=O)N4CCCCC4C3=O)cc2)cc1C (configuration not stated) | 2.86%
87 | CCOc1ccc(-n2c(=O)c3sc4ccccc4c3n(Cc3ccc(F)cc3)c2=O)cc1 | -12.1%
88 | CCc1ccccc1NC(=O)C(=O)NCCc1sc(-c2cccc(C)c2)nc1C | -10.3%
89 | COCCCNc1ncnc2c1nnn2C | -11.6%
90 | CCn1c(SCC(=O)Nc2ccc(C)c(C)c2)nnc1-c1nonc1NC(C)=O | -7.11%
91 | CC(C)c1cnc2c(c1SCC(=O)Nc1cccc([N+](=O)[O-])c1)c(=O)n(C)c(=O)n2C | 15.8%
92 | CCCCC(CC)Cn1c(Oc2ccccc2)nc2c1c(=O)n(C)c(=O)n2C (configuration not stated) | 0.0708%
93 | Cc1ccc(Cl)cc1N1CCN(S(=O)(=O)c2ccc3c(c2)CC(=O)N3C)CC1 | -0.457%
94 | COc1cc(-c2nnc(SCC(=O)Nc3cccc(C#N)c3)o2)cc(OC)c1OC | 7.95%
95 | CCOC(=O)C1CCCN(S(=O)(=O)c2ccc3c(c2)N(C)C(=O)CC(=O)N3C)C1 (configuration not stated) | 3.08%
96 | O=C(Cn1ncc2c3ccccc3n(Cc3ccc(Cl)cc3)c2c1=O)NC1CCCCCC1 | 2.55%
97 | CCc1ccc(CNC(=O)c2cnc3sc(N(CC)CC)nn3c2=O)cc1 | 15.8%
